From FireProtDB (doi:10.1021/bi0014406)

Conditions: Homo sapiens, pH 7.4, CD, Sodium phosphate 10 mM, reversible: yes

Substance: Apolipoprotein A-I wild type (chain not printed)
- denaturant m value (25 °C, GdnHCl): 2.1 kcal/mol/M
- denaturant midpoint (higher = more stable) (25 °C, GdnHCl): 1.1 M
- unfolding free energy (25 °C, GdnHCl): 2.3 kcal/mol
- Tm (Thermal): 58 °C
